T1: Full length human CD98hc on CHO cells (human)
T1 construct: CHO cells stably overexpressing it; also called CHO-human CD98hc; CHO-huCD98hc
T1 chain: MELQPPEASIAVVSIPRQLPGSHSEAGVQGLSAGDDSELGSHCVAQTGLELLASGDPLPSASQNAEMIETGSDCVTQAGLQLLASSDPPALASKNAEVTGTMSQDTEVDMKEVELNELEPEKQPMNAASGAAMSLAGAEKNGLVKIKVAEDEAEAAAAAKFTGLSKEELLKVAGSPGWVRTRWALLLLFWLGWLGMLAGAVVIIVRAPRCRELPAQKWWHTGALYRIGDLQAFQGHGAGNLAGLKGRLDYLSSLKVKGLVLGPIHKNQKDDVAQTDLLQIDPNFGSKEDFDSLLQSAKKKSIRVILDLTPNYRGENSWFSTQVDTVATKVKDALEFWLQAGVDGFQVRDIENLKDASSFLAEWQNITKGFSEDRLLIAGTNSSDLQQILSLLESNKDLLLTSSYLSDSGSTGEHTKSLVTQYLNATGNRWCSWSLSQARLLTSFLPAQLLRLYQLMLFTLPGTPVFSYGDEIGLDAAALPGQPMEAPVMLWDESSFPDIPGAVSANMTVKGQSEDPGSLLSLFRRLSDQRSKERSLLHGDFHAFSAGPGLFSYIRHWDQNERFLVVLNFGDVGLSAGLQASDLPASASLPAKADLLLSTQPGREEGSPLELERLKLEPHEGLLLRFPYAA

T2: Full length mouse CD98hc on CHO cells (mouse, UniProt P10852 1-526)
T2 construct: CHO cells stably overexpressing it; also called CHO-mouse CD98hc; CHO-mCD98hc
T2 sequence: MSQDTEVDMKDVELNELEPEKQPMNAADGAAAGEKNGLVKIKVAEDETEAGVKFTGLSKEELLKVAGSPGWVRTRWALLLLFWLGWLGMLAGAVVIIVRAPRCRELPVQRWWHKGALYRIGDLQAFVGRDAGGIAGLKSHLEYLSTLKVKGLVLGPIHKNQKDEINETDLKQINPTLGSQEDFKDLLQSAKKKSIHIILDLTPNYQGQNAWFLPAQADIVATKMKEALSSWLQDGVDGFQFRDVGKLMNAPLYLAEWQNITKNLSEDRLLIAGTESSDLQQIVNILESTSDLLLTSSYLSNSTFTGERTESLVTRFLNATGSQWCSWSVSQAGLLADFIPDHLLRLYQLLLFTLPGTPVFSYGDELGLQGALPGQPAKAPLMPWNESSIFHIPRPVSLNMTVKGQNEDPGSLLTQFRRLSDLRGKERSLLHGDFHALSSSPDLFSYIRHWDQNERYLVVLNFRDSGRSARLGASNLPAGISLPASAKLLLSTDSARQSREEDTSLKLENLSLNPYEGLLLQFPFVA

T3: human CD98hc endogenously expressed on HCMEC/D3 cells (human)
T3 construct: human brain endothelial cell line
T3 chain: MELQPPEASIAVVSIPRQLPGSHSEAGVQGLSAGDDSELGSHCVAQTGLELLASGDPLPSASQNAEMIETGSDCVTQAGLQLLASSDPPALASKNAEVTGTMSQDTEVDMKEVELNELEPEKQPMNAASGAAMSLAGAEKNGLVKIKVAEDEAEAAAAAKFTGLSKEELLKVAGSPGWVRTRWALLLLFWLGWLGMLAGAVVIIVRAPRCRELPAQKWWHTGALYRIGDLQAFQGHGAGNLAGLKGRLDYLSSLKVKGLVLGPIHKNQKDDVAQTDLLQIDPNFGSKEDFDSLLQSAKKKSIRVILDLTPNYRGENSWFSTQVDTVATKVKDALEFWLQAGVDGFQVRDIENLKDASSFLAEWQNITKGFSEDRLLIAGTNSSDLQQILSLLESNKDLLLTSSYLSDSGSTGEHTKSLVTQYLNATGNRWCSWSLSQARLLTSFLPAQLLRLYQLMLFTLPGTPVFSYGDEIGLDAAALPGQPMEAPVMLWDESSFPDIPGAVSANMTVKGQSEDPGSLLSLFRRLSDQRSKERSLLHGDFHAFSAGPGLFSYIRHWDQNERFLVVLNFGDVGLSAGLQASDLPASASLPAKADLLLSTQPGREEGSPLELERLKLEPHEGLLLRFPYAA


Key:
Test in all cases: FACS, 5 ug/ml
[1] = molecular target: T1, Full length human CD98hc on CHO cells
[2] = molecular target: T2, Full length mouse CD98hc on CHO cells
[3] = molecular target: T3, human CD98hc endogenously expressed on …

MFI fold-change relative to isotype hIgG1 [1] | MFI fold-change relative to isotype hIgG1 [2] | MFI fold-change relative to isotype hIgG1 [3] | Binder
30.6 | 1.8 | 115 | CD98hc.04.054 (2+1 bispecific antibody) (bispecific antibody) heavy 1: EVRLLESGGGLVQPGGSLRLSCAASGFTFSNYAMGWVRQAPGKGLEWVSAISGSGGSTYYADSVKGRFTTSRDDSKNALYLQMNSLRAEDTAVYYCARGGPGWYAADVWGQGTTVTVSSASTKGPSVFPLAPSSKSTSGGTAALGCLVKDYFPEPVTVSWNSGALTSGVHTFPAVLQSSGLYSLSSVVTVPSSSLGTQTYICNVNHKPSNTKVDKKV[here human IgG1 Fc with changes without letters]GGGGSGGGGSGGGGSQVQLQQSAAELARPGASVKMSCETSGYTFTRYTMNWVKQRPGQGLDWIGYINPSSGYAEYNQKFRGKTTLTADKSSSTAYIQLNSLTSEDSAVYYCVRYDGNYVYWGQGTTLTVSSGGSEGKSSGSGSESKSTGGSDIVMTQSQKFMSTSFGDRVDITCKASQNVGSAVAWYQQKPGQSPKLLIYSASNRYTGVPDRFTGSGSGTDFTLTINNMQSADLADYFCQQYNFYPLTFGAGTKLDLK heavy 2: EVRLLESGGGLVQPGGSLRLSCAASGFTFSNYAMGWVRQAPGKGLEWVSAISGSGGSTYYADSVKGRFTTSRDDSKNALYLQMNSLRAEDTAVYYCARGGPGWYAADVWGQGTTVTVSS[here human IgG1 constant region with changes without letters] light: DIQMTQSPSSLSASVGDRVTITCRASQSISSYLNWYQQKPGKAPKLLIYAASSLQSGVPSRFSGSGSGTDFTLTISSLQPEDFATYYCQQADLPAFAFGGGTKVEIKRTVAAPSVFIFPPSDEQLKSGTASVVCLLNNFYPREAKVQWKVDNALQSGNSQESVTEQDSKDSTYSLSSTLTLSKADYEKHKVYACEVTHQGLSSPVTKSFNRGEC
6.1 | 1 | 39.8 | CD98hc.04.063 (2+1 bispecific antibody) (bispecific antibody) heavy 1: EVRLLESGGGLVQPGGSLRLSCAASGFTFSNYAMGWVRQAPGKGLEWVSAISGSGGSTYYADSVKGRFTTSRDDSKNALYLQMNSLRAEDTAVYYCARGGPGWYAADVWGQGTTVTVSSASTKGPSVFPLAPSSKSTSGGTAALGCLVKDYFPEPVTVSWNSGALTSGVHTFPAVLQSSGLYSLSSVVTVPSSSLGTQTYICNVNHKPSNTKVDKKV[here human IgG1 Fc with changes without letters]GGGGSGGGGSGGGGSEVKLEESGGGLVQPGGSMILSCVASGFTFSNSWMNWVRQSPEKGLEWVAEIRLRSNNYATHYAESVKGRFTISRDDSKSTVYLQMNNLRAEDTGIYYCSRGDPGAYWGQGTLVTVSAGGSEGKSSGSGSESKSTGGSDIQMTQSSSYLSVSLGNRVTITCKASDHIKNWLAWFQQKPGNAPRLLISGATILETGVPSRFSGSGSGKDYTLSITSLQTEDVATYYCQQYWSTPYTFGGGTKLEIK heavy 2: EVRLLESGGGLVQPGGSLRLSCAASGFTFSNYAMGWVRQAPGKGLEWVSAISGSGGSTYYADSVKGRFTTSRDDSKNALYLQMNSLRAEDTAVYYCARGGPGWYAADVWGQGTTVTVSS[here human IgG1 constant region with changes without letters] light: DIQMTQSPSSLSASVGDRVTITCRASQSISSYLNWYQQKPGKAPKLLIYAASSLQSGVPSRFSGSGSGTDFTLTISSLQPEDFATYYCQQADLPAFAFGGGTKVEIKRTVAAPSVFIFPPSDEQLKSGTASVVCLLNNFYPREAKVQWKVDNALQSGNSQESVTEQDSKDSTYSLSSTLTLSKADYEKHKVYACEVTHQGLSSPVTKSFNRGEC
40.3 | 1.6 | 136 | CD98hc.04.062 (2+1 bispecific antibody) (bispecific antibody) heavy 1: EVRLLESGGGLVQPGGSLRLSCAASGFTFSNYAMGWVRQAPGKGLEWVSAISGSGGSTYYADSVKGRFTTSRDDSKNALYLQMNSLRAEDTAVYYCARGGPGWYAADVWGQGTTVTVSSASTKGPSVFPLAPSSKSTSGGTAALGCLVKDYFPEPVTVSWNSGALTSGVHTFPAVLQSSGLYSLSSVVTVPSSSLGTQTYICNVNHKPSNTKVDKKV[here human IgG1 Fc with changes without letters]GGGGSGGGGSGGGGSEVQLVESGGDLVKPGGSLKLSCTASRFAFSTYDMSWVRQTPEKRLEWVAYISSGGGSTYFPDTVKGRFTISRDNAKNTLYLQMSSLKSEDTAMYYCARQDGHYPWFPYWGQGTLVTVSAGGSEGKSSGSGSESKSTGGSDIVMSQSPSSLAVSVGEKVTMSCKSSQSLLYSGNQKTYLAWYQQKPGQSPKPLIYWASTRESGIPDRFTGSGSGTDFTLTISSVKAEDLAVYYCQQYYSYPPTFGAGTKLELK heavy 2: EVRLLESGGGLVQPGGSLRLSCAASGFTFSNYAMGWVRQAPGKGLEWVSAISGSGGSTYYADSVKGRFTTSRDDSKNALYLQMNSLRAEDTAVYYCARGGPGWYAADVWGQGTTVTVSS[here human IgG1 constant region with changes without letters] light: DIQMTQSPSSLSASVGDRVTITCRASQSISSYLNWYQQKPGKAPKLLIYAASSLQSGVPSRFSGSGSGTDFTLTISSLQPEDFATYYCQQADLPAFAFGGGTKVEIKRTVAAPSVFIFPPSDEQLKSGTASVVCLLNNFYPREAKVQWKVDNALQSGNSQESVTEQDSKDSTYSLSSTLTLSKADYEKHKVYACEVTHQGLSSPVTKSFNRGEC
29.5 | 0.4 | 108 | CD98hc.04.064 (2+1 bispecific antibody) (bispecific antibody, also called mouse CD98hc.04.064) heavy 1: EVRLLESGGGLVQPGGSLRLSCAASGFTFSNYAMGWVRQAPGKGLEWVSAISGSGGSTYYADSVKGRFTTSRDDSKNALYLQMNSLRAEDTAVYYCARGGPGWYAADVWGQGTTVTVSSASTKGPSVFPLAPSSKSTSGGTAALGCLVKDYFPEPVTVSWNSGALTSGVHTFPAVLQSSGLYSLSSVVTVPSSSLGTQTYICNVNHKPSNTKVDKKV[here human IgG1 Fc with changes without letters]GGGGSGGGGSGGGGSQVQLQQPGAELVRPGASVKLSCKASGYTFTSYWMNWVRQRPGQGLEWIGLIDPSDSETHYNQMFKDRATLTVDKSSSTAYMQLSSLTSADPAVYYCARASYGKGYFDYWGQGTTLTVSSGGSEGKSSGSGSESKSTGGSDIVMTQSPSSLAMSVGQKVTMSCKSSQSLLNNINQKNYLAWYQQKPGQSPKLLVYFASTRESGVPDRFIGSGSGTDFTLTINTVQAEDLADYFCQQHYSSPFTFGGGTKLEIK heavy 2: EVRLLESGGGLVQPGGSLRLSCAASGFTFSNYAMGWVRQAPGKGLEWVSAISGSGGSTYYADSVKGRFTTSRDDSKNALYLQMNSLRAEDTAVYYCARGGPGWYAADVWGQGTTVTVSS[here human IgG1 constant region with changes without letters] light: DIQMTQSPSSLSASVGDRVTITCRASQSISSYLNWYQQKPGKAPKLLIYAASSLQSGVPSRFSGSGSGTDFTLTISSLQPEDFATYYCQQADLPAFAFGGGTKVEIKRTVAAPSVFIFPPSDEQLKSGTASVVCLLNNFYPREAKVQWKVDNALQSGNSQESVTEQDSKDSTYSLSSTLTLSKADYEKHKVYACEVTHQGLSSPVTKSFNRGEC

Reference: patent US20250270341A1 (Alector, published 2025)
